This is one part of the list. Rule as the data show it: active = 3.2 or more and inactive = the rest. Most of these values are background signal.

B1: A36_VAR67_112 (peptide)
chain: APSTEHIYDSVAGST
B2: POL_HV1AN_130 (peptide)
chain: ARQAGQNYPIVSNAQ
B3: POL_HV1M2_132 (peptide)
chain: SKGVSQNYPILQNLQ
B4: POL_HV1MP_128 (peptide)
chain: DKEVSQNYPIVQNIQ
B5: POL_HV1SE_132 (peptide)
chain: SNQVSQNYPIVQNAQ
B6: POL_HV1MA_138 (peptide)
chain: SSSVSQNYPIVQNAQ
B7: LMP2_EBVA8_112 (peptide)
chain: DDSSQHIYEEAGRGS
B8: POL_HV1J3_132 (peptide)
chain: SSKVSQNYPIVQNIQ
B9: POL_HV1H2_132 (peptide)
chain: SNQVSQNYPIVQNIQ
B10: A36_VAR67_132 (peptide)
chain: DCNEQTIYQNTTVIN
B11: POL_HV190_132 (peptide)
chain: DNKVSQNYPIVQNAQ
B12: POL_HV1LW_132 (peptide)
chain: SSQVSQNYPIVQNIQ
B13: POL_HV1RH_132 (peptide)
chain: GSQVSQNYPIVQNLQ
B14: POL_HV19N_131 (peptide)
chain: SNPVSQNYPIVQNAQ
B15: POL_HV1MN_135 (peptide)
chain: SSQVSQNYPIVQNIE
B16: POL_HV192_130 (peptide)
chain: KGKVSQNYPIVQNLQ
B17: ICP22_HHV2H_189 (peptide)
chain: AWTLDLHYIRQCVNQ
B18: POL_HV193_128 (peptide)
chain: EKGVSQNYPIVQNLQ
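Also: displayed peptides selected on beads carrying the immobilized SH2 domain, with library peptides lacking any tyrosine serving as negative controls.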

One test deals with SHP2 C-SH2 domain E139D. Put plainly: enrichment score (SH2-bound / input frequency) (ratio); bacterial display of known human phosphotyrosine sites (pTyr-Var adds point mutants) read by sequencing; higher = stronger binding; tyrosines were phosphorylated by kinases first. The following applies: peptide library: Human pTyr.
As to B1, the enrichment score is inactive: 0.581.

In the case of B2, the enrichment score was inactive: 0.53.

As for B3, the enrichment score was inactive: 0.753.

As for B4, the enrichment score was inactive: 0.578.

Regarding B5, the enrichment score is inactive: 0.743.

Turning to B6, the enrichment score was inactive: 0.609.

In the case of B7, the enrichment score is inactive: 0.721.

Turning to B8, the enrichment score was inactive: 0.941.

For the molecule B9, the enrichment score was inactive: 0.637.

For B10, the enrichment score is inactive: 1.04.

Consider B11, for which the enrichment score is inactive: 0.777.

For the molecule B12, the enrichment score is inactive: 0.757.

As for B13, the enrichment score was inactive: 0.671.

For the molecule B14, the enrichment score was inactive: 0.832.

For B15, the enrichment score is inactive: 0.738.

For B16, the enrichment score is inactive: 1.16.

As to B17, the enrichment score is inactive: 1.74.

With B18, the enrichment score is inactive: 0.704.

In a further test the target is SHP2 C-SH2 domain wild-type. The description is as above. Particulars: peptide library: Human pTyr.
B1: the enrichment score was inactive: 0.529.

B2: the enrichment score is inactive: 0.75.

On to B3, for which the enrichment score was inactive: 0.518.

As to B4, the enrichment score is inactive: 0.739.

As to B5, the enrichment score is inactive: 0.619.

As for B6, the enrichment score is inactive: 0.611.

Consider B7, for which the enrichment score is inactive: 0.491.

Turning to B8, the enrichment score is inactive: 0.745.

As for B9, the enrichment score is inactive: 0.624.

Turning to B10, the enrichment score is inactive: 0.897.

On to B11, for which the enrichment score is inactive: 0.649.

As to B12, the enrichment score was inactive: 0.607.

B13: the enrichment score is inactive: 0.644.

As to B14, the enrichment score is inactive: 0.646.

As for B15, the enrichment score was inactive: 0.613.

As for B16, the enrichment score was inactive: 1.07.

In the case of B17, the enrichment score is inactive: 1.27.

B18: the enrichment score was inactive: 0.599.

The target of a further test is SHP2 N-SH2 domain L43F. Described as above. The following applies: peptide library: Human pTyr.
For the molecule B1, the enrichment score was inactive: 0.667.

With B2, the enrichment score is inactive: 0.433.

Regarding B3, the enrichment score was inactive: 0.585.

For the molecule B4, the enrichment score is inactive: 0.612.

For B5, the enrichment score is inactive: 0.766.

Take B6: the enrichment score was inactive: 0.728.

As to B7, the enrichment score is inactive: 0.815.

For the molecule B8, the enrichment score is inactive: 0.716.

Regarding B9, the enrichment score was inactive: 0.744.

As for B10, the enrichment score is inactive: 0.854.

For the molecule B11, the enrichment score was inactive: 0.813.

Turning to B12, the enrichment score was inactive: 0.715.

Take B13: the enrichment score is inactive: 0.696.

Take B14: the enrichment score was inactive: 0.771.

Regarding B15, the enrichment score is inactive: 0.627.

In the case of B16, the enrichment score was inactive: 1.01.

On to B17, for which the enrichment score was inactive: 1.48.

As to B18, the enrichment score was inactive: 0.767.

The next test addresses SHP2 N-SH2 domain T42A. The description is as above. The following applies: peptide library: Human pTyr.
As to B1, the enrichment score was inactive: 0.459.

With B2, the enrichment score was inactive: 0.81.

Consider B3, for which the enrichment score is inactive: 0.505.

In the case of B4, the enrichment score is inactive: 0.607.

Consider B5, for which the enrichment score is inactive: 0.759.

B6: the enrichment score was inactive: 0.675.

Consider B7, for which the enrichment score is inactive: 0.663.

For the molecule B8, the enrichment score was inactive: 0.794.

Take B9: the enrichment score was inactive: 0.654.

With B10, the enrichment score is inactive: 0.878.

In the case of B11, the enrichment score was inactive: 0.625.

With B12, the enrichment score is inactive: 0.738.

In the case of B13, the enrichment score is inactive: 0.614.

On to B14, for which the enrichment score is inactive: 0.67.

In the case of B15, the enrichment score is inactive: 0.575.

With B16, the enrichment score was inactive: 0.89.

As to B17, the enrichment score was inactive: 1.68.

In the case of B18, the enrichment score is inactive: 0.618.

A further test addresses SHP2 N-SH2 domain T52S. Described as above. The following applies: peptide library: Human pTyr.
In the case of B1, the enrichment score is inactive: 0.558.

As for B2, the enrichment score was inactive: 0.675.

Regarding B3, the enrichment score is inactive: 0.573.

For the molecule B4, the enrichment score was inactive: 0.744.

For the molecule B5, the enrichment score was inactive: 0.756.

Regarding B6, the enrichment score was inactive: 0.604.

As to B7, the enrichment score is inactive: 0.551.

Take B8: the enrichment score is inactive: 0.988.

In the case of B9, the enrichment score is inactive: 0.783.

With B10, the enrichment score is inactive: 0.978.

Turning to B11, the enrichment score was inactive: 0.914.

For the molecule B12, the enrichment score is inactive: 0.797.

For the molecule B13, the enrichment score is inactive: 0.645.

Regarding B14, the enrichment score was inactive: 0.716.

With B15, the enrichment score is inactive: 0.668.

As to B16, the enrichment score is inactive: 1.02.

Regarding B17, the enrichment score is inactive: 2.13.

Turning to B18, the enrichment score was inactive: 0.804.

A further test concerns the target SHP2 N-SH2 domain wild-type. Described as above. The following applies: peptide library: Human pTyr.
Consider B1, for which the enrichment score is inactive: 0.595.

On to B2, for which the enrichment score is inactive: 0.543.

On to B3, for which the enrichment score is inactive: 0.697.

Regarding B4, the enrichment score is inactive: 0.802.

For B5, the enrichment score is inactive: 0.604.

As for B6, the enrichment score is inactive: 0.624.

For B7, the enrichment score was inactive: 0.494.

For the molecule B8, the enrichment score is inactive: 1.02.

For B9, the enrichment score is inactive: 0.641.

B10: the enrichment score was inactive: 1.05.

As for B11, the enrichment score was inactive: 0.744.

As to B12, the enrichment score is inactive: 0.636.

For the molecule B13, the enrichment score was inactive: 0.708.

On to B14, for which the enrichment score was inactive: 0.758.

As to B15, the enrichment score is inactive: 0.613.

As for B16, the enrichment score is inactive: 1.25.

Take B17: the enrichment score is inactive: 1.92.

In the case of B18, the enrichment score was inactive: 0.585.
